Measured values published in paper PMC6919601, “Identification of Plasmodium dipeptidyl aminopeptidase allosteric inhibitors by high throughput screening” (PLoS ONE, 2019).
Screen size: about 110,000 compounds; about 230 (0.21%) showed an effect of 50% or more. This is one part of the list.

Molecular target: DPAP1 (Plasmodium falciparum, UniProt Q8IIJ9)
Assay: primary screen, percent inhibition; read by cleavage of a fluorogenic dipeptide substrate; higher = more effect of the substance
Set-up: species or system P. falciparum D10 trophozoite lysates; single well
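Also: 30 min substrate incubation versus DMSO and 10 µM JCP410 controls.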

DPAP1, sequence (Q8IIJ9 whole entry, looked up): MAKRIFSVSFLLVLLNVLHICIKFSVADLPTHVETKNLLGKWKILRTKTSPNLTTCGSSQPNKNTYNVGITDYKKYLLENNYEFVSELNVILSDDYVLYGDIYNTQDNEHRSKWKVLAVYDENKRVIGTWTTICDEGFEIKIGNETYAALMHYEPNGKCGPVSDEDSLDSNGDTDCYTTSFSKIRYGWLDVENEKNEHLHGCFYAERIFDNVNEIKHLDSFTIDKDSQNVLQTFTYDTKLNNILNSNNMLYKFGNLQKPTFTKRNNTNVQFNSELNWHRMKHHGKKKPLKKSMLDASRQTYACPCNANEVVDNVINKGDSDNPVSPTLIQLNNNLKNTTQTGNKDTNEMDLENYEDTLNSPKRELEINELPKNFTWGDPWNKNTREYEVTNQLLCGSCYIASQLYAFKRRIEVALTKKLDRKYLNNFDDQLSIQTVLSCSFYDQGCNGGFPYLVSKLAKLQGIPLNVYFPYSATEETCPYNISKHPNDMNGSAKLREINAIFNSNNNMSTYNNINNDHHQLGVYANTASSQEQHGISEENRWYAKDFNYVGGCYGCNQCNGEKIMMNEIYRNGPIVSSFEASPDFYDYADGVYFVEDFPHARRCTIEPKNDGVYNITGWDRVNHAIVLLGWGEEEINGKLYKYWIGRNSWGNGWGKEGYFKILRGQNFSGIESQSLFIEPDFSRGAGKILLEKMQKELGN

Row | Compound | % Inhibition @ 10 uM [%]
1 | O=C(NCc1cccnc1)c1ccc2c(c1)sc1nc(-c3ccc(F)cc3)cn12 | -2.97
2 | Cc1ccc(CNC(=O)Cc2c(C(=O)O)[nH]c3ccc(Cl)cc23)o1 | 1.3
3 | C=CCOc1ccc(Oc2nc(N(C)C)nc(N3CCCC3)n2)nn1 | -1.31
4 | Cc1cccc(Cn2c(S)nc3c2c(=O)[nH]c(=O)n3C)c1 | -2.16
5 | Cc1ccccc1C(=O)N(C)Cc1ccccc1 | -4.4
6 | Cc1ccccc1S(=O)Cc1ccc(C(=O)N2CCCCCC2)o1 (stereo not shown) | 0.458
7 | CCOC(=O)C1=C(CN2CCOCC2)NC(=O)NC1c1ccc(F)cc1 (stereo not shown) | -2.48
8 | Cc1cccc(C(=O)NC2CCSC2=O)c1 (stereo not shown) | -1.62
9 | Cc1nc2ccc(S(=O)(=O)N(CC(=O)Nc3ncccc3C)Cc3ccccc3)cc2s1 | -6.11
10 | Cc1ccc(Oc2nc3ccccn3c(=O)c2/C=C(\C#N)S(=O)(=O)c2ccc(Cl)cc2)c(C)c1 | -5.1
11 | Cc1ccc(-c2cn3nc(N4CCC(C(=O)NCc5cccnc5)CC4)sc3n2)cc1 | 0.434
12 | Cc1ccnc(NC(=O)COc2cc(C)c(Cl)c(C)c2)c1 | 2.17
13 | Cc1cccn2c(=O)c3cc(S(=O)(=O)c4ccccc4)c(=N)n(Cc4ccco4)c3nc12 | 22.7
14 | CC(C)CC(C(=O)NCC#N)c1cccc(-c2cccc(OC3CCN(CCO)CC3)c2)c1 (stereo not shown) | -3.04
15 | Nc1nc(CN2CCC(Cc3ccccc3)CC2)nc(Nc2ccccc2)n1 | 0.408
16 | COc1ccc(NC(=O)C(Cc2ccc([N+](=O)[O-])cc2)N2C(=O)c3ccccc3C2=O)cc1 (stereo not shown) | 0.937
17 | O=C(Nc1ccc(Cl)cc1C(=O)Nc1cccc2ccccc12)c1ccco1 | -1.59
18 | CCC(=O)N1CCc2cc(OC)c(OC)cc2C1COc1cccc(C(F)(F)F)c1 (stereo not shown) | -3.56
19 | NC(=O)c1ccc(NC(=O)c2ccc3c(c2)OCO3)cc1 | 0.24
20 | COc1ccc(N2C(=O)C(Cl)=C(Nc3ccc(C)c(C)c3)C2=O)cc1 | 1.08
21 | COc1ccc(CNC(=O)Cc2c(C)c3cc(OC)c(OC)cc3oc2=O)cc1OC | -2.57
22 | CN(CC(=O)Nc1cccnc1)S(=O)(=O)c1ccc2[nH]c3c(c2c1)CCCC3 | -3.6
23 | Cc1cccc(Oc2nc3c4c(C)c(C)oc4ncn3n2)c1 | 4.2
24 | COc1ccc(N(CC(=O)NCc2ccccn2)S(=O)(=O)c2ccc(C)cc2)cc1Cl | -9.29
25 | CC(C)CC(C(=O)NCC#N)c1ccc(NC(=O)NCc2cccnc2)cc1 (stereo not shown) | -3.97

Row | Compound | % Inhibition @ 10 uM [%]
26 | CC1CCCCN1S(=O)(=O)c1ccc(CN2C(=O)c3cccnc3C2=O)s1 (stereo not shown) | -7.28
27 | CCn1c(C)c(C)c2cc(C(=O)NCc3ccc4c(c3)OCO4)ccc21 | 0.399
28 | c1ccc2cc(Cn3cnc4ccccc43)ccc2c1 | -2.87
29 | COc1ccc(S(=O)(=O)Nc2ccc(C)cc2C)cc1 | 3.85
30 | Cc1ccc(C2Nc3ccccc3C(=O)N2Cc2ccco2)cc1 (stereo not shown) | 10.6
31 | CSCCCN(CC(C)O)CC(C)O (stereo not shown) | 3.76
32 | CCNC(=O)Cn1cc(C#N)c2ccccc21 | -3.63
33 | Cc1ccc(C2=NS(=O)(=O)N(C)C(C(=O)Nc3cccnc3)=C2)cc1 | 5.48
34 | Cc1ccc(S(N)(=O)=O)cc1NS(=O)(=O)c1ccc(Br)cc1 | -1.17
35 | Cc1cccc(N2CCN(Cc3ccc(Cl)c([N+](=O)[O-])c3)CC2)c1C | -1.38
36 | CCC(C)c1ccc(S(=O)(=O)N2CC(=O)Nc3ccccc32)cc1 (stereo not shown) | -2.18
37 | Oc1ccc(Cl)cc1C1=CC(C(F)(F)C(F)F)=NCCN1 | -12.2
38 | COc1cc(/C=N/n2c(C)nnc2-n2nc(C)cc2C)cc(Br)c1O | 2.56
39 | Cc1ccc(-c2csc(Nc3ccc(O)cc3)n2)c(C)c1 | -4.03
40 | O=C(Nc1ccc2c(c1)OCO2)c1cccc(Cl)c1 | 1.84
41 | N#Cc1c(NC(=O)c2cc(-c3ccco3)on2)sc2c1CCCC2 | -5.09
42 | CCOC(=O)c1nnn(-c2nonc2N)c1-c1cccc2ccccc12 | -0.0735
43 | CCN(C(=O)c1ccc([N+](=O)[O-])cc1)c1ccccc1C | -4.4
44 | CN(c1ccccc1C(=O)NCCc1ccccc1)S(C)(=O)=O | 3.8
45 | CCOCCCn1c(SCC(N)=O)nc2c(oc3ccccc32)c1=O | -1.36
46 | Cc1ccc(C2=NS(=O)(=O)N(C)C(C(=O)NCc3ccccc3)=C2)cc1 | -2.84
47 | CC(C)Oc1ccc(CNC(=O)Nc2cccs2)cc1 | 2.25
48 | CC1=C(C#N)C(=O)NC(=O)/C1=C\c1ccc(-c2cccc(C(=O)OC(C)C)c2)o1 | 0.487
49 | COc1cccc(CN2CCN(c3ccccn3)CC2)c1 | 1.63
50 | CCOC(=O)c1cnc(N2CCCCC2)nc1C1CCN(C(=O)OC(C)(C)C)CC1 | -1.03

Row | Compound | % Inhibition @ 10 uM [%]
51 | CCC1CCCCN1C(=O)CCN1C(=O)c2ccccc2C1=O (stereo not shown) | -4.33
52 | Nc1ccc2c(c1)C(=O)N(c1cccc(F)c1)C2=O | 5.52
53 | CC1(C)CC2=Nc3nc(-c4ccccc4)nn3C(c3cccnc3)C2=C(O)C1 (stereo not shown) | 3.05
54 | CCCC/N=C1\CC(C)(C)CC(O)=C1C(=O)CCC | 1.82
55 | Cc1ccc(-c2cn3nc(N4CCC(C(=O)NCCCc5ccccc5)CC4)sc3n2)cc1 | -0.35
56 | Cc1ccc2c(c1)cc1c(=O)n(CC(=O)NCc3ccccn3)nc(C)n12 | 4.84
57 | Cc1ccccc1OC(C)C(=O)NC1CCCCC1 (stereo not shown) | -2.76
58 | O=C(CC1C(=O)Nc2ccccc21)c1ccccn1 (stereo not shown) | 0.161
59 | COc1ccc(N(CC(=O)Nc2ccc(C(C)C)cc2)S(C)(=O)=O)c(OC)c1 | -0.116
60 | CC1(C)CC(=O)c2c(nn(-c3ccccc3)c2-c2ccccn2)C1 | 1.27
61 | COCc1cc(O)nc(SCC(=O)Nc2cc(C)cc(C)c2)n1 | 0.777
62 | Cc1ccccc1C(=O)Nc1c(C)nc(O)nc1O | -3.13
63 | CCc1sc(NC(=O)C2CCCCC2C(=O)O)nc1-c1ccccc1 (stereo not shown) | -1.28
64 | Cn1c(=N)n(CC(=O)c2ccc(-c3ccccc3)cc2)c2ccccc21 | 10.6
65 | CCOc1ccc2nc(N3CCC(C(=O)NCCOC)CC3)sc2c1 | 3.4
66 | CSc1nc2c(c(=O)n1C1CCCC1)C1(CCCC1)Cc1ccccc1-2 | -0.436
67 | C=CCc1ccccc1OCC(=O)O | 3.25
68 | CC(C)NC(=O)c1ccccc1Br | -3.49
69 | CC1CN(c2nc3ccccc3nc2SCC(=O)NC2CCCCCCC2)CC(C)O1 (stereo not shown) | 3.36
70 | N#CCNC(=O)[C@H](Cc1cc(Cl)c(O)c(Cl)c1)NC(=O)C(c1ccccc1)c1ccccc1 | 20.1
71 | Cc1ccc(SC(C)C(=O)NC(C)(C)C)cc1 (stereo not shown) | 3.62
72 | COc1ccc(Br)cc1C=C1C(=O)NC(=S)NC1=O | 2.13
73 | COc1ccc(C(CC(=O)Nc2nc(C)cs2)N2Cc3ccccc3C2=O)cc1 (stereo not shown) | -2.94
74 | O=C(c1cc(-c2ccccc2O)on1)N1CCOCC1 | -4.43
75 | Cc1ccc2nc(Nc3nc(O)c4c(n3)CCC4)nc(C)c2c1 | -2.32

Row | Compound | % Inhibition @ 10 uM [%]
76 | O=C1c2ccccc2C(=O)N1CC1c2ccccc2CCN1C(=O)c1cccc(C(F)(F)F)c1 (stereo not shown) | -0.458
77 | Cn1c(=O)c2c(nc(NCC(=O)O)n2CCc2ccccc2)n(C)c1=O | -4.65
78 | COCCCn1c(=O)c(C#N)cc2c(=O)n3cccc(C)c3nc21 | 2.73
79 | CC(=O)c1cccc(NC(=O)CN(C)S(=O)(=O)c2c(C)cc(C)cc2C)c1 | -1.82
80 | CCC(CC)N1CCN(C(=O)c2cc(OC)c(OC)c(OC)c2)CC1 | 7.02
81 | CC1(C)CC(=O)c2cc(OCC(=O)N3CCN(Cc4ccccc4)CC3)ccc2O1 | -4.97
82 | Cc1ccc(N2C(=O)NC(=O)/C(=C/NCCCO)C2=O)cc1C | 2.69
83 | Cc1ccc(NC2=NC(=O)/C(=C\c3ccco3)S2)cc1 | -1.06
84 | CCCCNC(=O)CNC(=S)N(Cc1ccccc1)Cc1cccs1 | 4.47
85 | O=C(CN(c1ccccc1Cl)S(=O)(=O)c1ccccc1)NCc1cccnc1 | 1.02
86 | Cc1ccc(/C=C2\C(=O)NC(=S)N(c3ccc(Cl)cc3)C2=O)o1 | 1.72
87 | O=C(COc1ccccc1)N1CCN(Cc2cccc(Cl)c2)CC1 | -1.1
88 | CC(C)c1ccc(O)c(C(=O)c2cnn(-c3ccccc3)c2)c1 | -8.86
89 | O=C(O)C(O)C12CC3CC(CC(Br)(C3)C1)C2 (stereo not shown) | -0.712
90 | CCc1ccc(S(=O)(=O)c2nnn3c2nc(NCc2ccccc2)c2ccccc23)cc1 | -4.85
91 | O=C(c1ccco1)N(Cc1ccccc1)c1ccccn1 | -3.12
92 | COc1ccc2oc(=O)c(-c3nc(-c4ccc5c(c4)OCO5)no3)cc2c1 | -3.43
93 | COc1ccc(CCNC(=O)C2c3ccccc3Oc3ccccc32)cc1OC | -6.7
94 | COc1ccc(NC(=O)CN(c2ccc(OC)c(OC)c2)S(C)(=O)=O)cc1Cl | -2.74
95 | Cc1cc(C(c2ccccc2)c2cc(C)c(N)c(C)c2)cc(C)c1N | 1.35
96 | COc1cccc(C2C(C#N)=C(N)Oc3c2c(C)nn3-c2ccc(C)cc2)c1 (stereo not shown) | -0.941
97 | CC(C)N(C(=O)c1ccc(C(=O)O)cc1)C(C)C | -6.07
98 | CCOC(=O)c1sc(NC(=O)CSc2nc(SC)ns2)nc1C | 1.91
99 | CCOC(=O)C1=C(C)NC(=O)NC1c1cccc(OCC)c1O (stereo not shown) | -0.85
100 | CCN1CCN(C(=O)CCCn2nc(C)c3c(C)n(-c4ccc(C)cc4)nc3c2=O)CC1 | -6.53
